In the supplement of paper PMC12217912:
The other results are listed elsewhere or left out. The full chains were built here from the parent and the listed change. Inactive controls read about 0.05.

B1: TEV protease; numbered along this chain (parent)
chain: MGESLFKGPRDYNPISSSICHLTNESDGHTTSLYGIGFGPFIITNKHLFRRNNGTLVVQSLHGVFKVKDTTTLQQHLVDGRDMIIIRMPKDFPPFPQKLKFREPQREERICLVTTNFQTKSMSSMVSDTSCTFPSGDGIFWKHWIQTKDGQCGSPLVSTRDGFIVGIHSASNFTNTNNYFTSVPKNFMELLTNQEAQQWVSGWRLNADSVLWGGHKVFMVKPEEPFQPVKEATQL

Variants of: B1
Assay: raw area under fraction-flipped curve 0-4 h after induction (AUC4h, not background-subtracted), DNA-recorder readout of cleavage of the substrate (dimensionless); higher = more cleavage of the substrate by the protease variant
Conditions: temperature: 34 °C; time window: 0-4 h after rhamnose induction
Description: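 In vivo DNA recorder in E. coli TOP10(DE3) ΔrhaA at 34 °C. Each TEVp single-site mutant (parent TEVp 0) is paired with a single-site variant of the 7-mer TEVs (canonical ENLYFQ|S). The substrate sits between flexible linkers in a Bxb1-sfGFP-TEVs-SsrA fusion, so cleavage stabilises Bxb1 and speeds flipping of a recombination array, read by NGS. The value is the raw area under the fraction-flipped curve over 0-4 h after rhamnose induction (AUC4h), with ≥20 reads per time point. It is not background-subtracted; inactive controls average about 0.047.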
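Note: Bxb1 expression induced with 0.2% (w/v) L-rhamnose at OD600 near 0.5, cultures sampled hourly, flipped fraction per protease–substrate barcode pair counted by paired-end Illumina sequencing.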

Row | Variant | area with substrate ENLYFAS | area with substrate ENLYFDS | area with substrate ENLYFES | area with substrate ENLYFIS | area with substrate ENLYFKS | area with substrate ENLYFLS | area with substrate ENLYFMS | area with substrate ENLYFRS | area with substrate ENLYFWS | area with substrate ENLYFFS | area with substrate ENLYFGS | area with substrate ENLYFHS | area with substrate ENLYFNS | area with substrate ENLYFPS | area with substrate ENLYFSS | area with substrate ENLYFTS | area with substrate ENLYFYS | area with substrate ENLYFCS | area with substrate ENLYFVS
1 | T181S | 0.0539 | 0.0639 | 0.0623 | 0.0537 | 0.0469 | 0.063 | 0.0611 | 0.0641 | 0.0505 |  |  |  |  |  |  |  |  |  | 
2 | D27Y | 0.0576 | 0.0547 | 0.0632 | 0.0543 | 0.0589 | 0.0521 | 0.0602 | 0.0593 | 0.0719 | 0.0605 | 0.0619 | 0.0422 | 0.0626 | 0.0695 | 0.0559 | 0.0595 | 0.0718 |  | 
3 | F117W | 0.0731 | 0.0554 |  |  | 0.0633 |  | 0.0701 |  | 0.0549 |  |  |  |  | 0.0836 | 0.0657 | 0.0644 | 0.0611 |  | 
4 | F41S | 0.0545 | 0.0582 | 0.063 | 0.0475 | 0.0606 | 0.0642 |  | 0.0496 | 0.073 | 0.0656 | 0.0424 | 0.0536 | 0.0516 | 0.0528 |  | 0.0639 | 0.0494 | 0.0415 | 
5 | E195V | 0.0496 |  |  | 0.0566 |  |  | 0.0585 |  |  |  |  |  | 0.0348 |  |  | 0.0614 |  |  | 
6 | R204A | 0.0584 |  | 0.0608 | 0.0615 |  |  | 0.0805 |  |  |  | 0.0675 | 0.0114 | 0.0827 | 0.0565 | 0.0281 | 0.0695 | 0.0497 | 0.0622 | 0.0629
7 | T129S | 0.0602 | 0.0502 | 0.0654 | 0.0643 | 0.0588 | 0.0573 | 0.0801 | 0.0446 | 0.0516 | 0.0749 | 0.0576 | 0.0616 | 0.0631 | 0.0591 |  | 0.0616 | 0.0568 |  | 
8 | F218K | 0.0317 |  | 0.0563 | 0.0557 | 0.0547 |  | 0.0702 |  |  | 0.0669 |  | 0.057 | 0.0538 | 0.0571 |  | 0.0549 |  |  | 
9 | Q227F | 0.0904 |  |  | 0.0513 | 0.0587 |  | 0.0873 | 0.0666 |  | 0.0729 |  |  | 0.0362 | 0.0546 | 0.0586 |  | 0.0435 |  | 
10 | Q227G | 0.0562 |  | 0.0763 | 0.0564 |  | 0.0594 | 0.0629 | 0.0538 | 0.0348 | 0.0624 |  | 0.0579 |  | 0.0596 | 0.0558 | 0.055 | 0.0724 | 0.06 | 
11 | V217G | 0.0558 | 0.0588 | 0.0537 | 0.0478 |  |  |  |  | 0.0626 | 0.0711 |  | 0.0505 |  | 0.0713 | 0.0644 | 0.0623 |  | 0.0582 | 0.0126
12 | L33E | 0.0689 | 0.0514 | 0.0585 | 0.0535 |  |  | 0.0585 | 0.0544 |  | 0.0669 |  | 0.0484 |  | 0.0584 | 0.0635 | 0.0635 | 0.0514 | 0.0495 | 
13 | L33C | 0.0642 |  | 0.0451 | 0.0564 | 0.0515 |  | 0.0845 |  | 0.039 | 0.08 | 0.0715 | 0.0642 | 0.0677 |  | 0.0563 |  |  |  | 0.0449
14 | I42P | 0.0579 | 0.0432 | 0.0564 | 0.0261 | 0.0467 | 0.041 | 0.0215 | 0.0489 |  | 0.048 |  | 0.0502 | 0.0409 | 0.0435 | 0.0425 | 0.0457 | 0.0561 | 0.0277 | 
15 | I42M | 0.0705 |  | 0.0569 | 0.0471 | 0.064 | 0.0474 | 0.0618 |  | 0.0471 | 0.0759 | 0.0589 | 0.0593 | 0.064 | 0.0536 | 0.0433 | 0.0656 |  | 0.052 | 0.0333
16 | F140D | 0.0616 |  |  | 0.064 | 0.0681 |  |  | 0.0657 |  | 0.0764 |  |  |  |  | 0.0655 |  | 0.0584 | 0.0641 | 
17 | T70Y | 0.0535 |  | 0.0595 | 0.0534 | 0.0569 |  | 0.0575 | 0.0437 | 0.0519 | 0.0687 |  | 0.0585 | 0.0624 |  | 0.06 | 0.0432 | 0.0386 |  | 
18 | N186S | 0.0584 |  | 0.0742 | 0.0608 | 0.0691 |  | 0.0405 | 0.0517 |  | 0.0748 | 0.0635 | 0.0616 | 0.0692 | 0.0549 |  |  | 0.0526 | 0.0616 | 
19 | L77M | 0.0849 |  |  | 0.0417 | 0.0636 |  | 0.0629 | 0.0627 | 0.0493 | 0.0631 | 0.0498 | 0.0613 | 0.0472 | 0.0619 |  | 0.0672 |  | 0.057 | 0.0546
20 | K68N | 0.0626 |  | 0.0773 | 0.066 |  | 0.0465 | 0.0639 | 0.0593 | 0.0533 | 0.0635 | 0.0745 | 0.0691 |  | 0.068 | 0.0559 | 0.0676 | 0.0583 | 0.0691 | 0.0353
21 | M219K | 0.0578 | 0.0602 | 0.0497 | 0.0561 | 0.0681 | 0.0626 | 0.0527 |  | 0.069 | 0.065 | 0.0573 | 0.0653 |  | 0.0541 | 0.0612 | 0.0567 | 0.0368 | 0.048 | 
22 | F6K | 0.0626 |  | 0.0024 | 0.0604 |  |  |  | 0.0662 | 0.0379 | 0.0673 |  |  | 0.0735 | 0.0616 | 0.0576 | 0.0694 |  |  | 0.0688
23 | I43M | 0.0739 |  | 0.0573 | 0.0572 |  | 0.0601 | 0.0594 |  | 0.0458 | 0.075 | 0.0581 |  | 0.0817 | 0.0588 | 0.059 | 0.0703 |  | 0.0583 | 
24 | I110C | 0.0627 |  | 0.0732 | 0.0537 | 0.0584 | 0.0541 | 0.0673 |  | 0.0646 | 0.0507 |  | 0.105 | 0.0659 | 0.0473 | 0.0692 | 0.0546 | 0.0637 | 0.0583 | 0.0401
25 | I110P | 0.0685 |  | 0.0563 | 0.0536 | 0.0551 |  |  |  |  | 0.0586 |  |  |  |  | 0.0608 |  |  | 0.0574 | 
26 | D149C | 0.0585 |  | 0.0922 |  |  |  | 0.0466 | 0.0604 | 0.0453 | 0.0629 | 0.0718 |  | 0.072 | 0.027 |  |  | 0.0727 | 0.0373 | 
27 | Q197F | 0.0686 | 0.068 | 0.056 | 0.0572 | 0.0432 |  | 0.0775 |  | 0.0717 | 0.0611 | 0.0666 | 0.0358 | 0.0965 | 0.0577 | 0.0601 |  | 0.0578 | 0.0616 | 0.0535
